Test results published in publication PMC8886574, “Synthesis, physicochemical characterization and neuroprotective evaluation of novel 1-hydroxypyrazin-2(1H)-one iron chelators in an in vitro cell model of Parkinson's disease” (Dalton Transactions (Cambridge, England : 2003), 2022).

Assay: Protonation constants (log K) of ligands by UV-visible spectrophotometric titration vs. pH
Type: physicochemical
Conditions: Solvent MeOH/H2O (80/20 w/w), I = 0.1 M (NaClO4)
Experimental: For ligand 10a, protonation constants of the ligand were studied in both media while complexation studies were carried out only in the mixed solvent for solubility reasons.

Row | log K LH | Structure (SMILES)
1 | 4.24(2) | O=c1cncc(-c2ccccc2)n1O [Ligand 10a, 1-Hydroxy-6-phenylpyrazin-2(1H)-one]
2 | 10.57(1) | Cc1nc(Cc2ccc(O)cc2)c(=O)n(O)c1C [Ligand 6d, 1-Hydroxy-3-(4-hydroxybenzyl)-5,6-dimethylpyrazin-2(1H)-one]
3 | 5.53(2) | Cc1nc(Cc2ccccc2)c(=O)n(O)c1C [Ligand 6c, 1-Hydroxy-3-benzyl-5,6-dimethylpyrazin-2(1H)-one]
